Results on 50 molecules are retold here after PMC6919601, “Identification of Plasmodium dipeptidyl aminopeptidase allosteric inhibitors by high throughput screening” (PLoS ONE, 2019).

Structures are written as SMILES. Among all 110,000 compounds or so, about 230 (0.21%) showed an effect of 50% or more. The list shows a part of the results.
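Also: 30 min substrate incubation versus DMSO and 10 µM JCP410 controls.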

The target of this experiment is DPAP1 (Plasmodium falciparum, UniProt Q8IIJ9). The experiment can be described thus: primary screen, percent inhibition; read by cleavage of a fluorogenic dipeptide substrate; higher = more effect of the substance. Set-up: species or system P. falciparum D10 trophozoite lysates; single well.
Chain of DPAP1 (Q8IIJ9 whole entry, looked up): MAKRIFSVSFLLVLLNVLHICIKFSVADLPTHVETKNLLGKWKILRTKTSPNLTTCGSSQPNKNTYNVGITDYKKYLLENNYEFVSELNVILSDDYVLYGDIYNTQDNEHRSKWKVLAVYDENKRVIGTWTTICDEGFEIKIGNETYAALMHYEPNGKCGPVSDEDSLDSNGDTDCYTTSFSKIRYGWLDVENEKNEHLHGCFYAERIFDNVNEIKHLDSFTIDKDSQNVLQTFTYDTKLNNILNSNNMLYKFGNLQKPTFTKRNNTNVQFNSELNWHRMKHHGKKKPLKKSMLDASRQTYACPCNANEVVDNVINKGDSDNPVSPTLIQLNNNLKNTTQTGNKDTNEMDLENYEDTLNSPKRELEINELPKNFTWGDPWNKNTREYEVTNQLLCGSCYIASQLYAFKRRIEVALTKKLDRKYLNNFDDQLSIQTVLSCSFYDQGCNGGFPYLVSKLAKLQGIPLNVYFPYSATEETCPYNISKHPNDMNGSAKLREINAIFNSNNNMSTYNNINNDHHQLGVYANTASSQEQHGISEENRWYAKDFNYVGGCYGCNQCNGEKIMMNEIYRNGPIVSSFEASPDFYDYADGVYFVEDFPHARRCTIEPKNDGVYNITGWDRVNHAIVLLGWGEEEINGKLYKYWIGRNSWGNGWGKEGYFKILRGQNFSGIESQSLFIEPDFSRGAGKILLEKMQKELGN
With `O=C(CCSc1ccccc1)NC1CC2CCC1C2` (centres unmarked), the “% Inhibition @ 10 uM” value came out at 4.83%.
Then `COc1ccc(C2CC(c3ccc(Br)cc3)=NN2c2ccccc2F)cc1` (centres unmarked), with -1.29%; and `CCOC(=O)c1ccc2nc(NC(=O)C34CC5CC(CC(C5)C3)C4)sc2c1`, with 3.34%; and `O=C(NCc1nc2ccccc2[nH]1)c1ccccc1`, with 0.0345%.
As for `O=C(O)c1ccccc1NS(=O)(=O)c1cccc2cccnc12`, the “% Inhibition @ 10 uM” value was -3.46%.
Turning to `CC(c1ccccc1C(O)(c1ccccc1)C(F)(F)F)N(C)C` (centres unmarked), the “% Inhibition @ 10 uM” value is -1.5%.
`CN1CCN(C(=O)CSc2c(O)nc3ccc(Cl)cc3c2-c2ccccc2)CC1`: the “% Inhibition @ 10 uM” value was -1.61%.
With `O=C(c1ccco1)c1cn(CCOc2ccccc2F)c2ccccc12`, the “% Inhibition @ 10 uM” value is given as -5%.
On to `Clc1cccc(N2CCN(C3CCN(Cc4ccccc4)CC3)CC2)c1`, for which the “% Inhibition @ 10 uM” value is recorded as 1.57%.
Turning to `COc1cc(/C=N\n2nnnc2N)cc(OC)c1OC`, the “% Inhibition @ 10 uM” value was found to be 6.11%.
Then `COc1cc(OC)c(CN2CCN(c3cccc(C(F)(F)F)c3)CC2)cc1Br`, with -0.192%; and `Cc1ccc(OCC(=O)Nc2ccc3ccccc3c2)c(C)c1`, with -0.95%.
On to `COc1ccc(C2C(C#N)=C(N)Oc3ccc4ccccc4c32)cc1` (centres unmarked), for which the “% Inhibition @ 10 uM” value is -0.99%.
For `Oc1ccc(NCc2ccc(Br)cc2)cc1`, the “% Inhibition @ 10 uM” value was 4.67%.
In the case of `Cc1ccc(S(=O)(=O)C2(C(=O)NCCc3ccccc3)CC2)cc1`, the “% Inhibition @ 10 uM” value came out at 6.28%.
For `CCCCCCCC1NC(=O)NC(C)=C1C(=O)OCC` (centres unmarked), the “% Inhibition @ 10 uM” value is reported as 2.65%.
As for `COc1ccccc1C1CC(=O)NC(SCC(=O)Nc2ccc(Br)cc2)=C1C#N` (centres unmarked), the “% Inhibition @ 10 uM” value was -5.96%.
Turning to `CN(C)CCNC(=O)c1cc(Sc2cccc(Cl)c2)nc2ccccc12`, the “% Inhibition @ 10 uM” value is -2.26%.
Then `CCCN(CCC)C(=O)Cn1c(=O)sc2ccccc21`, with -7.93%; and `CCC[C@H](NC(=O)C1(NC(=O)c2cc3cc(OC)ccc3o2)CCCCC1)C(=O)c1nc2ccccc2o1`, with -6.46%; and `O=C(Nc1nc2n(n1)C(c1ccccc1)C=C(c1ccccc1)N2)c1ccco1` (centres unmarked), with 4.18%.
The result for `COc1cc(/C=C2\C(=N)N3N=C(S(C)(=O)=O)SC3=NC2=O)ccc1OCc1ccccc1C` reads -7.21%; that for `Oc1cc(Cc2nc3ccccc3[nH]2)nn1-c1ccccc1`, 15.2%.
The result for `CCOC(=O)N1CCN(c2nc3ccccc3n3nnnc23)CC1` reads -0.735%.
Regarding `Cc1ccc2c(CNC3CC3)c(C(=O)O)n(Cc3ccccc3C)c2c1`, the “% Inhibition @ 10 uM” value is -2.56%.
Take `CNC(=O)C1CCCN(c2nnc(C)c3c(C)n(-c4ccc(Cl)cc4)nc23)C1` (centres unmarked): the “% Inhibition @ 10 uM” value was -2.68%.
Then `COc1cc(C2=N/C(=C\c3ccc(Cl)cc3Cl)C(=O)O2)cc(OC)c1OC`, with 1.3%.
Regarding `COc1ccc(/C=C(\NC(=O)c2ccccc2)C(=O)NCC2CCCO2)cc1` (centres unmarked), the “% Inhibition @ 10 uM” value is -0.615%.
For `CCCC[C@H](NC(=O)C(Cc1c(F)cccc1F)NC(=O)c1ccc(-c2ccccc2Cl)cc1)C(=O)c1nnc(-c2ccccc2)o1` (some centres unmarked), the “% Inhibition @ 10 uM” value was -8.81%.
Turning to `COc1ccc(CC(=O)Nc2cc(C)cc(C)c2)cc1`, the “% Inhibition @ 10 uM” value is -4.91%.
`O=C(Nc1cccc2ccccc12)c1cc(F)c(Cl)nc1Cl`: the “% Inhibition @ 10 uM” value was -3.34%.
`CC1=C(c2ccc(C)cc2)S(=O)(=O)N=C1N1CCCC(C)C1` (centres unmarked): the “% Inhibition @ 10 uM” value was 0.0882%.
Turning to `N#Cc1c(N)nc2c(c1-c1ccccc1)CCCC2`, the “% Inhibition @ 10 uM” value is reported as -1.98%.
As to `CC(=O)Nc1ccc(S(=O)(=O)N(C)C2CCCCC2)cc1`, the “% Inhibition @ 10 uM” value is recorded as 2.46%.
In the case of `COc1ccc(CN2COc3c(cc4c(C)c(C)c(=O)oc4c3C)C2)cc1OC`, the “% Inhibition @ 10 uM” value was -2.57%.
On to `CCN(CC)CCN(C)Cc1ccccc1F`, for which the “% Inhibition @ 10 uM” value is on record as -2.34%.
As to `COc1ccc(-c2oc3ncn4nc(-c5ccco5)nc4c3c2-c2ccc(OC)cc2)cc1`, the “% Inhibition @ 10 uM” value is -1.6%.
As to `CCCCn1cnc2sc3c(c2c1=N)CCCC3`, the “% Inhibition @ 10 uM” value turned out to be 17.2%.
The result for `COc1cccc(/C=c2/sc3nc(=O)c(Cc4ccc(F)cc4)nn3c2=O)c1OC` reads 2.9%; that for `O=C(NCCCCc1ccccc1)c1ccc(Br)cc1`, -3.03%.
`CCCSc1ncc(Cl)c(C(=O)NCc2ccccc2)n1`: the “% Inhibition @ 10 uM” value is given as -1.11%.
`COc1ccc(CC(=O)N2CCC(c3ccccc3)C2)cc1` (centres unmarked): the “% Inhibition @ 10 uM” value is recorded as -6.69%.
Take `N#CC1=C(N)Oc2[nH]nc(-c3ccccn3)c2C12C(=O)Nc1ccccc12` (centres unmarked): the “% Inhibition @ 10 uM” value is given as -6.58%.
`CCOC(=O)N1CCC(NC(=O)CN(C)S(=O)(=O)c2ccc3nc(C)sc3c2)CC1`: the “% Inhibition @ 10 uM” value is reported as -5.89%.
On to `C1=C(c2ccccc2)n2ncnc2NC1c1ccccc1` (centres unmarked), for which the “% Inhibition @ 10 uM” value is given as -3.86%.
Turning to `COc1ccccc1OCC(=O)Nc1sc(Cc2ccccc2)c(C)c1C(N)=O`, the “% Inhibition @ 10 uM” value was -1.6%.
The result for `CCCN1C/C(=C\c2ccc(N(C)C)cc2)C2=NN(C(C)=O)C(c3ccc(N(C)C)cc3)C2C1` (centres unmarked) reads 10.3%; that for `c1cncc(-c2nnc3n2CCCCC3)c1`, 11.6%.
On to `CC(O)c1nc2ccccc2n1C` (centres unmarked), for which the “% Inhibition @ 10 uM” value turned out to be 4.3%.
In the case of `O=C(c1cc(-c2ccc(O)cc2)on1)N1CCOCC1`, the “% Inhibition @ 10 uM” value came to 5.1%.
